Laboratory results reported in article PMC4336329 (PLoS ONE, 2015).
In all, about 310,000 compounds went through this assay and about 2,200 (0.71%) showed an effect of 50% or more. The effect is printed as a negative number. Some of the results follow.

target: human ether-à-go-go-related gene (hERG) potassium channel (human, UniProt Q12809); experiment: primary screen, population patch clamp on CHO cells stably expressing hERG
Sequence (Q12809 whole entry, looked up): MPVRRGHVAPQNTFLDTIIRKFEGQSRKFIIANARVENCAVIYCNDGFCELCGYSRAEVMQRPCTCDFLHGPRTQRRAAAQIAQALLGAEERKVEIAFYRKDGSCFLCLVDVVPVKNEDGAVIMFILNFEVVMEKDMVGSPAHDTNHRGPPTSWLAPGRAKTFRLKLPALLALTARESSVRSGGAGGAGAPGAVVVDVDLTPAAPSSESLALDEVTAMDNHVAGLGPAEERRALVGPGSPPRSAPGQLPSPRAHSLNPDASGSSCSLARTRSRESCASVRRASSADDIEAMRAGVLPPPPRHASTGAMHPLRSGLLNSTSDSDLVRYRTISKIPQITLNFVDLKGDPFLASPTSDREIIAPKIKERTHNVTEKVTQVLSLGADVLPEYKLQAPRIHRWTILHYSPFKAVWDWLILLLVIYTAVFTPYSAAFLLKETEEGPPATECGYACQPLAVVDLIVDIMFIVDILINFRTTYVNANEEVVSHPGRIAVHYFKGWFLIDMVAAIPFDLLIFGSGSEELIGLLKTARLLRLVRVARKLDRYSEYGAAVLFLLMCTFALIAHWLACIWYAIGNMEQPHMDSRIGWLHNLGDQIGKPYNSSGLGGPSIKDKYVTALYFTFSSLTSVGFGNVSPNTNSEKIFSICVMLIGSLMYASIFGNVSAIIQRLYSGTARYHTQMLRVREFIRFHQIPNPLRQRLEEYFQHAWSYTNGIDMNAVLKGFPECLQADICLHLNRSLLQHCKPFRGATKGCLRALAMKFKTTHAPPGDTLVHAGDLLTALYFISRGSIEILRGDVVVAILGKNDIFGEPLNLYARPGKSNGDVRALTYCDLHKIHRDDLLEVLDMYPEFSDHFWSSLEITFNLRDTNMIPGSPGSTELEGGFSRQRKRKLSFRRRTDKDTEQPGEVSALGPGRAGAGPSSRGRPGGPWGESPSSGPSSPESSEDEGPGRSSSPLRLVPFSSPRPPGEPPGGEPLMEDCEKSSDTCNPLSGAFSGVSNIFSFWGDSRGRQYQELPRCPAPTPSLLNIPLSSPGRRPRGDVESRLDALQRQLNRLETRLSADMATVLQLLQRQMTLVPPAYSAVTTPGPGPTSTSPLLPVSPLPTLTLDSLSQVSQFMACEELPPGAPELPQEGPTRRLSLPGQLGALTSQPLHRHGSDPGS

SMILES	hERG current change (%, negative = inhibition) at 1uM [%]
CN(C(=O)COC(=O)c1ccc(CN2CCCC2=O)cc1)c1ccccc1	-5.66
O=C(Nc1ccccc1Cl)Nc1ccccc1Cl	5.38
COc1cc2c(cc1NC(=O)COC(=O)/C=C/c1ccccc1)oc1ccccc12	8.84
CC(=O)c1cc2c(ccc3ccccc32)oc1=O	16.3
COC(=O)C1=C(C)N=C2SC(C)C(=O)N2C1/C=C/c1ccccc1 (centres unmarked)	0.432
CC(C)CC(=O)Nc1ccc(C(=O)COC(=O)C2CC(=O)N(Cc3ccccc3)C2)cc1 (centres unmarked)	12.4
O=C(Cc1ccccc1)NCC(=O)N1CCCC1	15.2
C=CCNC(=O)c1cc(C(=O)C(C)c2ncc(C(F)(F)F)cc2Cl)c[nH]1 (centres unmarked)	11.8
S=C1SCN(Cc2ccco2)CN1Cc1ccco1	13.7
CCOc1ccc(C(F)(F)F)cc1NC(=O)c1ccc(OC)c([N+](=O)[O-])c1	15.4
COc1ccc2oc3ccccc3c(=O)c2c1	15.6
COc1cccc(-n2cnc(=O)c3cccnc32)c1	14
CN(C)n1cccc1/C=C(\C#N)S(=O)(=O)c1cccc(Cl)c1	10.6
CC(C)(C)c1ccc(C(=O)N2CCC(C(=O)NCc3ccncc3)CC2)cc1	2.38
CCCCCC(=O)Nc1ccc(-c2cn3cccnc3n2)cc1	7.85
NS(=O)(=O)c1ccc(NC(=O)Nc2cccc3ccccc23)cc1	15.6
Cc1nn(-c2cccc(C(F)(F)F)c2)c(Cl)c1/C=N/n1cnnc1	-3.77
O=C(COC(=O)c1cccnc1)Nc1ccc2c(c1)OCO2	20.7
O=C(NCN1C(=O)C2C3C=CC(C3)C2C1=O)Nc1nncs1 (centres unmarked)	9.67
C[C@H](OC(=O)n1ccnc1)[C@@H]1O[C@@]2(C)CCC[C@@H]1O2	15.1

SMILES	hERG current change (%, negative = inhibition) at 1uM [%]
CC(C)c1nc(Cl)c(C#N)c2c1CCCC2	8.24
Cc1cc(C)cc(C(=O)N2CCN(Cc3ccc4c(c3)OCO4)CC2)c1	14.8
CCOC(=O)N/N=C(/C)c1cccc(-n2cnnn2)c1	20.2
CCC1Nc2ncnc(N3CCN(c4ccccn4)CC3)c2N(Cc2ccc(Cl)cc2)C1=O.O=C(O)C(F)(F)F (centres unmarked)	-13.2
Cc1ccc(NC(=O)CCN2C(=O)NC3(CCCC3)C2=O)c(C)c1	7.92
O=C(CNc1ccccc1)Nc1cccc2ccccc12	8.71
N=c1c2c(n(Cc3ccc(F)cc3)c3c1CCC3)CCC2	-2.36
O=C(NCc1cccs1)C(=O)NCC1OCCCN1S(=O)(=O)c1ccc(F)cc1 (centres unmarked)	7.16
Nc1ccc(S(=O)(=O)N2CCC(Cc3ccccc3)CC2)cc1	16.7
Cc1cc(N(C)C)nc(SC(C)C)n1	14.2
COc1ccc(NC(=O)c2cc(-c3ccccc3)nc3c2cnn3C(C)C)cc1	13.7
COc1ccc(-c2sc3ccc(OC)cc3c2C#Cc2ccccn2)cc1	15.3
CCOc1ccc2c(c1)c1nnc(SCC(=O)N3CCCCC3C)nc1n2C (centres unmarked)	-2.18
CSCCC(NC(=O)C1CCC(C)CC1)C(=O)NCCN1CCOCC1 (centres unmarked)	10.3
O=C(Nn1c(-c2ccc(F)cc2)nc2ccccc2c1=O)C1CCCCC1	12.1
O=C1C(Cl)=C(Nc2ccccc2O)C(=O)N1CCc1ccccc1	18.2
O=C1CSC(c2cccnc2)N1c1cccc(Cl)c1 (centres unmarked)	12.2
COc1cc(C(=O)NCc2nnc(SCC(=O)N3CCCCC3)o2)cc(OC)c1OC	11.6
CCOC(=O)Cc1nc2cc(Cl)ccc2o1	11.9
CC(C)n1nc(C(=O)Nc2nc3ccc(S(C)(=O)=O)cc3s2)c2ccccc2c1=O	14.6

SMILES	hERG current change (%, negative = inhibition) at 1uM [%]
O=C(CN1CCN(c2ccc(F)cc2)CC1)OCc1ccccc1	-9.96
COc1ccc(C(=O)Nc2ccc(C)cn2)cc1S(=O)(=O)N1CCCc2ccccc21	11.2
Cc1cccc(N2CCN(C(=O)c3c(-c4ccccc4Cl)noc3C)CC2)c1C	11.4
CCC(=O)Nc1cccc(NC(=O)CSc2nnnn2C)c1	-34.5
C=CCOc1c(Cl)cc(CNc2ccc3[nH]c(=O)[nH]c3c2)cc1OC	11.3
CCOc1ccccc1N=C1NC(=O)CS1	4.5
O=C(Cc1ccc(-c2ccccc2)cc1)NCCN1CCOCC1	11.7
O=C(CSc1nnc(-c2ccncc2)o1)c1cccc([N+](=O)[O-])c1	7.71
CCCOc1ccc(-c2nnc(N)s2)cc1	13.5
CSc1c(C#N)c(N)c(C#N)c2c1COC(C)(C)C2	-1.89
Cc1ccc(OCCC(=O)OCC(=O)N2CCN(S(=O)(=O)c3ccc(C)cc3)CC2)cc1	-19.9
O=C(NCc1ccccc1)c1cc[n+](CC(=O)c2cccs2)cc1.[Br-]	-1.16
Cc1ccc(S(=O)(=O)NCC(C)NS(=O)(=O)c2ccc(C)cc2)cc1 (centres unmarked)	11
N/C(Cc1ccc([N+](=O)[O-])cc1)=N\OC(=O)c1ccccc1Br	-33.3
CC(C)Cc1nc2n[nH]c(N)c2c2c1COC(C)(C)C2	5.06
Cc1ccc(-n2c(-c3ccccc3)n[nH]c2=S)c(C)c1	17.4
Cc1ccc(NC(=O)c2ccc(OCc3c(C)noc3C)cc2)cc1	2.98
Cc1cc(C)n2c(SCC(=O)NC3CCCC(C)C3C)nnc2n1 (centres unmarked)	12.4
CCCN1C(=O)/C(=C/c2nc3ccccc3c(=O)[nH]2)c2ccccc21	4.62
